From paper PMC9911399, “Two distinct binding modes provide the RNA-binding protein RbFox with extraordinary sequence specificity” come the findings set out here.

Numbering of substitutions follows the chain as printed; changes in the protein carry UniProt numbers. The list shows a part of the results.

B1: CAGCGAC (DNA:RNA)
RNA: GGGAGACCGGAAUUCAGAUUGUCCCAGCGACUUAAAUCCCGUCGUAGCCACCA
DNA 1: CAATCTGAATTCCGGTCTCCC
DNA 2: TGGTGGCTACGACGGGATT
B2: UCUCACA (DNA:RNA)
RNA: B1 RNA with C25U, A26C, G27U, G29A, A30C, C31A
DNA 1: CAATCTGAATTCCGGTCTCCC
DNA 2: TGGTGGCTACGACGGGATT
B3: UUCCAGC (DNA:RNA)
RNA: B1 RNA with C25U, A26U, G27C, G29A, A30G
DNA 1: CAATCTGAATTCCGGTCTCCC
DNA 2: TGGTGGCTACGACGGGATT
B4: CCUUACC (DNA:RNA)
RNA: B1 RNA with A26C, G27U, C28U, G29A, A30C
DNA 1: CAATCTGAATTCCGGTCTCCC
DNA 2: TGGTGGCTACGACGGGATT
B5: AAUGCAC (DNA:RNA)
RNA: B1 RNA with C25A, G27U, C28G, G29C
DNA 1: CAATCTGAATTCCGGTCTCCC
DNA 2: TGGTGGCTACGACGGGATT
B6: CUGGGCA (DNA:RNA)
RNA: B1 RNA with A26U, C28G, A30C, C31A
DNA 1: CAATCTGAATTCCGGTCTCCC
DNA 2: TGGTGGCTACGACGGGATT
B7: AAUAAAC (DNA:RNA)
RNA: B1 RNA with C25A, G27U, C28A, G29A
DNA 1: CAATCTGAATTCCGGTCTCCC
DNA 2: TGGTGGCTACGACGGGATT
B8: UUAGCCA (DNA:RNA)
RNA: GGGAGACCGGAAUUCAGAUUGUCCUUAGCCAUUAAAUCCCGUCGUAGCCACCA
DNA 1: CAATCTGAATTCCGGTCTCCC
DNA 2: TGGTGGCTACGACGGGATT
B9: CGUUUGA (DNA:RNA)
RNA: B1 RNA with A26G, G27U, C28U, G29U, A30G, C31A
DNA 1: CAATCTGAATTCCGGTCTCCC
DNA 2: TGGTGGCTACGACGGGATT
B10: CCUUGGA (DNA:RNA)
RNA: B1 RNA with A26C, G27U, C28U, A30G, C31A
DNA 1: CAATCTGAATTCCGGTCTCCC
DNA 2: TGGTGGCTACGACGGGATT
B11: GCAGUGG (DNA:RNA)
RNA: B8 RNA with U25G, U26C, C29U, C30G, A31G
DNA 1: CAATCTGAATTCCGGTCTCCC
DNA 2: TGGTGGCTACGACGGGATT
B12: GUCCGGA (DNA:RNA)
RNA: B1 RNA with C25G, A26U, G27C, A30G, C31A
DNA 1: CAATCTGAATTCCGGTCTCCC
DNA 2: TGGTGGCTACGACGGGATT
B13: AAGGAUU (DNA:RNA)
RNA: B1 RNA with C25A, C28G, G29A, A30U, C31U
DNA 1: CAATCTGAATTCCGGTCTCCC
DNA 2: TGGTGGCTACGACGGGATT
B14: CCAACCG (DNA:RNA)
RNA: B8 RNA with U25C, U26C, G28A, A31G
DNA 1: CAATCTGAATTCCGGTCTCCC
DNA 2: TGGTGGCTACGACGGGATT
B15: UGGCCCU (DNA:RNA)
RNA: B8 RNA with U26G, A27G, G28C, A31U
DNA 1: CAATCTGAATTCCGGTCTCCC
DNA 2: TGGTGGCTACGACGGGATT
B16: GAUUCUG (DNA:RNA)
RNA: B1 RNA with C25G, G27U, C28U, G29C, A30U, C31G
DNA 1: CAATCTGAATTCCGGTCTCCC
DNA 2: TGGTGGCTACGACGGGATT
B17: CACUUGG (DNA:RNA)
RNA: B1 RNA with G27C, C28U, G29U, A30G, C31G
DNA 1: CAATCTGAATTCCGGTCTCCC
DNA 2: TGGTGGCTACGACGGGATT
B18: GCCGAGG (DNA:RNA)
RNA: B8 RNA with U25G, U26C, A27C, C29A, C30G, A31G
DNA 1: CAATCTGAATTCCGGTCTCCC
DNA 2: TGGTGGCTACGACGGGATT
B19: UGUCUUC (DNA:RNA)
RNA: B1 RNA with C25U, A26G, G27U, G29U, A30U
DNA 1: CAATCTGAATTCCGGTCTCCC
DNA 2: TGGTGGCTACGACGGGATT
B20: ACAUUCA (DNA:RNA)
RNA: B8 RNA with U25A, U26C, G28U, C29U
DNA 1: CAATCTGAATTCCGGTCTCCC
DNA 2: TGGTGGCTACGACGGGATT
B21: AUAAGGG (DNA:RNA)
RNA: B8 RNA with U25A, G28A, C29G, C30G, A31G
DNA 1: CAATCTGAATTCCGGTCTCCC
DNA 2: TGGTGGCTACGACGGGATT
B22: GGUCGGA (DNA:RNA)
RNA: B1 RNA with C25G, A26G, G27U, A30G, C31A
DNA 1: CAATCTGAATTCCGGTCTCCC
DNA 2: TGGTGGCTACGACGGGATT
B23: UAACACC (DNA:RNA)
RNA: B1 RNA with C25U, G27A, G29A, A30C
DNA 1: CAATCTGAATTCCGGTCTCCC
DNA 2: TGGTGGCTACGACGGGATT
B24: UGUAGCU (DNA:RNA)
RNA: B8 RNA with U26G, A27U, G28A, C29G, A31U
DNA 1: CAATCTGAATTCCGGTCTCCC
DNA 2: TGGTGGCTACGACGGGATT
B25: GCGGAAG (DNA:RNA)
RNA: B1 RNA with C25G, A26C, C28G, G29A, C31G
DNA 1: CAATCTGAATTCCGGTCTCCC
DNA 2: TGGTGGCTACGACGGGATT
B26: UGGCUCG (DNA:RNA)
RNA: B1 RNA with C25U, A26G, G29U, A30C, C31G
DNA 1: CAATCTGAATTCCGGTCTCCC
DNA 2: TGGTGGCTACGACGGGATT
B27: AAAAUCU (DNA:RNA)
RNA: B8 RNA with U25A, U26A, G28A, C29U, A31U
DNA 1: CAATCTGAATTCCGGTCTCCC
DNA 2: TGGTGGCTACGACGGGATT
B28: CCACAUC (DNA:RNA)
RNA: B1 RNA with A26C, G27A, G29A, A30U
DNA 1: CAATCTGAATTCCGGTCTCCC
DNA 2: TGGTGGCTACGACGGGATT
B29: CAUGGGU (DNA:RNA)
RNA: B1 RNA with G27U, C28G, A30G, C31U
DNA 1: CAATCTGAATTCCGGTCTCCC
DNA 2: TGGTGGCTACGACGGGATT
B30: GAAAGUG (DNA:RNA)
RNA: B1 RNA with C25G, G27A, C28A, A30U, C31G
DNA 1: CAATCTGAATTCCGGTCTCCC
DNA 2: TGGTGGCTACGACGGGATT
B31: CGAGCUG (DNA:RNA)
RNA: B8 RNA with U25C, U26G, C30U, A31G
DNA 1: CAATCTGAATTCCGGTCTCCC
DNA 2: TGGTGGCTACGACGGGATT

The assay addresses T1, RBFOX1 RRM (Homo sapiens, UniProt Q9NWB1 109-208).
T1 sequence: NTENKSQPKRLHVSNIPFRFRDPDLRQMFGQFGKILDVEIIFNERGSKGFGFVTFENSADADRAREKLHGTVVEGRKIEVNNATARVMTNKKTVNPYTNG
Briefly: EMSA; HiTS-Eq, 1 nM pool, 10 min; buffer printed only for the single-RNA assays: 10 mM Tris pH 7.5, 150 mM NaCl, 3.4 mM EDTA, 0.001% NP-40, 30 C. To be noted: tags: His6 N-terminal (pET28a); label: 5' 32P. Summed up:
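These values rest on relative association constants, computed from read-count changes of each RNA species versus the control reaction and normalised to the cognate motif. Reads came from free RNA recovered by 8% native PAGE after purified RbFox RRM (wild type or mutant) at increasing concentrations was equilibrated for 10 min in 50 µL with 1 nM of a 5′-radiolabelled pool with 7 randomized nucleotides and DNA-annealed flanks.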
With B1, the binding signal was 0.00211 KA relative to UGCAUGU.

Turning to B2, the binding signal is 0.00139 KA relative to UGCAUGU.

On to B3, for which the binding signal was 0.00485 KA relative to UGCAUGU.

Consider B4, for which the binding signal was 0.00281 KA relative to UGCAUGU.

With B5, the binding signal is 0.0124 KA relative to UGCAUGU.

With B6, the binding signal was 0.0146 KA relative to UGCAUGU.

Take B7: the binding signal is 0.0042 KA relative to UGCAUGU.

With B8, the binding signal is 0.00507 KA relative to UGCAUGU.

In the case of B9, the binding signal is 0.0182 KA relative to UGCAUGU.

Take B10: the binding signal was 0.00739 KA relative to UGCAUGU.

B11: the binding signal was 0.0173 KA relative to UGCAUGU.

Consider B12, for which the binding signal is 0.00347 KA relative to UGCAUGU.

As to B13, the binding signal was 0.00827 KA relative to UGCAUGU.

As to B14, the binding signal is 0.00184 KA relative to UGCAUGU.

In the case of B15, the binding signal was 0.0154 KA relative to UGCAUGU.

For B16, the binding signal was 0.0258 KA relative to UGCAUGU.

B17: the binding signal was 0.0107 KA relative to UGCAUGU.

As for B18, the binding signal is 0.0183 KA relative to UGCAUGU.

As for B19, the binding signal is 0.0182 KA relative to UGCAUGU.

B20: the binding signal was 0.00105 KA relative to UGCAUGU.

As for B21, the binding signal is 0.00198 KA relative to UGCAUGU.

In the case of B22, the binding signal was 0.000339 KA relative to UGCAUGU.

With B23, the binding signal was 0.00243 KA relative to UGCAUGU.

With B24, the binding signal was 0.0103 KA relative to UGCAUGU.

Take B25: the binding signal is 0.0153 KA relative to UGCAUGU.

As to B26, the binding signal is 0.0396 KA relative to UGCAUGU.

For the molecule B27, the binding signal was 0.000983 KA relative to UGCAUGU.

Turning to B28, the binding signal is 0.000384 KA relative to UGCAUGU.

On to B29, for which the binding signal was 0.0086 KA relative to UGCAUGU.

On to B30, for which the binding signal was 0.014 KA relative to UGCAUGU.

In the case of B31, the binding signal was 0.0164 KA relative to UGCAUGU.
